Source: the supplement of paper PMC8728848
Some of the results follow.

What was measured:
Assay in all cases: glycan array binding signal (z-score within array); higher = stronger binding
Settings in all cases: glycan notation: IUPAC condensed, linker removed
Fuc(a1-2)Gal = molecular target: Fuc(a1-2)Gal
Outline: (§1)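 The binding signal is a Z-score computed within each array and averaged over linkers. Arrays of the same protein sequence at different concentrations or buffers were also averaged together. Data originate from 3228 arrays in the Consortium for Functional Glycomics database, kept only where the protein sequence was available.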

Fuc(a1-2)Gal(b1-3)GalNAc = molecular target: Fuc(a1-2)Gal(b1-3)GalNAc
Outline: as §1

[1] = molecular target: Fuc(a1-2)Gal(b1-3)GalNAc(b1-3)Gal
Outline: as §1

[2] = molecular target: Fuc(a1-2)Gal(b1-3)GalNAc(b1-3)Gal(a1-4)Gal(b1-4)Glc
Outline: as §1

[3] = molecular target: Fuc(a1-2)Gal(b1-3)GalNAc(b1-3)Gal(b1-4)Glc
Outline: as §1

[4] = molecular target: Fuc(a1-2)Gal(b1-3)GalNAc(b1-4)[Neu5Ac(a2-3)]Gal(b1-4)Glc
Outline: as §1

[5] = molecular target: Fuc(a1-2)Gal(b1-3)[Fuc(a1-4)]GlcNAc
Outline: as §1

Fuc(a1-2)Gal(b1-4)Glc = molecular target: Fuc(a1-2)Gal(b1-4)Glc
Outline: as §1

Fuc(a1-2)Gal(b1-4)Glc6S = molecular target: Fuc(a1-2)Gal(b1-4)Glc6S
Outline: as §1

Fuc(a1-2)Gal(b1-4)GlcNAc = molecular target: Fuc(a1-2)Gal(b1-4)GlcNAc
Outline: as §1

[6] = molecular target: Fuc(a1-2)Gal(b1-4)GlcNAc(b1-3)Gal(b1-4)GlcNAc
Outline: as §1

[7] = molecular target: Fuc(a1-2)Gal(b1-4)GlcNAc(b1-3)Gal(b1-4)GlcNAc(b1-3)Gal(b1-4)GlcNAc
Outline: as §1

[8] = molecular target: Fuc(a1-2)Gal(b1-4)GlcNAc6S
Outline: as §1

[9] = molecular target: Fuc(a1-2)Gal(b1-4)[Fuc(a1-3)]GalNAc(b1-3)Gal(b1-4)[Fuc(a1-3)]GlcNAc
Outline: as §1

[10] = molecular target: Fuc(a1-2)Gal(b1-4)[Fuc(a1-3)]GalNAc(b1-3)Gal(b1-4)[Fuc(a1-3)]GlcNAc(b1-3)Gal(b1-4)[Fuc(a1-3)]GalNAc
Outline: as §1

[11] = molecular target: Fuc(a1-2)Gal(b1-4)[Fuc(a1-3)]GlcNAc
Outline: as §1

Fuc(a1-2)Gal6S(b1-4)Glc = molecular target: Fuc(a1-2)Gal6S(b1-4)Glc
Outline: as §1

[12] = molecular target: Fuc(a1-2)Gal6S(b1-4)Glc6S
Outline: as §1

[13] = molecular target: Fuc(a1-2)Gal6S(b1-4)GlcNAc
Outline: as §1

Fuc(a1-2)GlcNAc = molecular target: Fuc(a1-2)GlcNAc
Outline: as §1

Fuc(a1-2)[Gal(a1-3)]Gal = molecular target: Fuc(a1-2)[Gal(a1-3)]Gal
Outline: as §1

[14] = molecular target: Fuc(a1-2)[Gal(a1-3)]Gal(b1-3)GlcNAc
Outline: as §1

[15] = molecular target: Fuc(a1-2)[Gal(a1-3)]Gal(b1-4)Glc
Outline: as §1

[16] = molecular target: Fuc(a1-2)[Gal(a1-3)]Gal(b1-4)GlcNAc
Outline: as §1

[17] = molecular target: Fuc(a1-2)[Gal(a1-3)]Gal(b1-4)[Fuc(a1-3)]GlcNAc
Outline: as §1

[18] = molecular target: Fuc(a1-2)[Gal(a1-4)]Gal(b1-4)GalNAc
Outline: as §1

[19] = molecular target: Fuc(a1-2)[GalNAc(a1-3)]Gal
Outline: as §1

[20] = molecular target: Fuc(a1-2)[GalNAc(a1-3)]Gal(b1-3)GlcNAc
Outline: as §1

[21] = molecular target: Fuc(a1-2)[GalNAc(a1-3)]Gal(b1-4)Glc
Outline: as §1

[22] = molecular target: Fuc(a1-2)[GalNAc(a1-3)]Gal(b1-4)GlcNAc
Outline: as §1

[23] = molecular target: Fuc(a1-2)[GalNAc(a1-3)]Gal(b1-4)[Fuc(a1-3)]GlcNAc
Outline: as §1

[24] = molecular target: Fuc(a1-2)[GalNAc(a1-4)]Gal(b1-4)GlcNAc
Outline: as §1

Fuc(a1-3)GlcNAc = molecular target: Fuc(a1-3)GlcNAc
Outline: as §1

[25] = molecular target: Fuc(a1-3)[Gal(b1-4)]Glc6S
Outline: as §1

[26] = molecular target: Fuc(a1-3)[Gal(b1-4)]GlcNAc
Outline: as §1

[27] = molecular target: Fuc(a1-3)[Gal(b1-4)]GlcNAc(b1-3)Gal(b1-3)[Fuc(a1-4)]GlcNAc
Outline: as §1

[28] = molecular target: Fuc(a1-3)[Gal(b1-4)]GlcNAc(b1-4)Gal(b1-4)[Fuc(a1-3)]GlcNAc
Outline: as §1

[29] = molecular target: Fuc(a1-3)[Gal(b1-4)]GlcNAc(b1-4)Gal(b1-4)[Fuc(a1-3)]GlcNAc(b1-4)Gal(b1-4)[Fuc(a1-3)]GlcNAc
Outline: as §1

[30] = molecular target: Fuc(a1-3)[Gal(b1-4)]GlcNAc6S
Outline: as §1

[31] = molecular target: Fuc(a1-3)[Gal3S(b1-4)]Glc
Outline: as §1

[32] = molecular target: Fuc(a1-3)[Gal3S(b1-4)]Glc6S
Outline: as §1

[33] = molecular target: Fuc(a1-3)[Gal3S(b1-4)]GlcNAc
Outline: as §1

[34] = molecular target: Fuc(a1-3)[Gal3S(b1-4)]GlcNAc6S
Outline: as §1

[35] = molecular target: Fuc(a1-3)[GalNAc(b1-4)]Gal(b1-4)GlcNAc
Outline: as §1

Fuc(a1-4)GlcNAc = molecular target: Fuc(a1-4)GlcNAc
Outline: as §1

B1: IDGF2 (Drosophila melanogaster), Q9V3D4 (protein)
chain: MKAWIWFTFVACLFAASTEAASNLVCYYDSSSYTREGLGKLLNPDLEIALQFCSHLVYGYAGLRGENLQAYSMNENLDIYKHQFSEVTSLKRKYPHLKVLLSVGGDHDIDPDHPNKYIDLLEGEKVRQIGFIRSAYDLVKTYGFDGLDLAYQFPKNKPRKVHGDLGLAWKSIKKLFTGDFIVDPHAALHKEQFTALVRDVKDSLRADGFLLSLTVLPNVNSTWYFDIPALNGLVDFVNLATFDFLTPARNPEEADYSAPIYHPDGSKDRLAHLNADFQVEYWLSQGFPSNKINLGVATYGNAWKLTKDSGLEGVPVVPETSGPAPEGFQSQKPGLLSYAEICGKLSNPQNQFLKGNESPLRRVSDPTKRFGGIAYRPVDGQITEGIWVSYDDPDSASNKAAYARVKNLGGVALFDLSYDDFRGQCSGDKYPILRAIKYRLHHHHHH
For B1, the “glycan array binding signal (z-score)” value (Fuc(a1-2)Gal) was -0.319, the “glycan array binding signal (z-score)” value (Fuc(a1-2)Gal(b1-3)GalNAc) was -0.317 and the “glycan array binding signal (z-score)” value [1] was -0.519. The “glycan array binding signal (z-score)” value [2] was -0.27, the “glycan array binding signal (z-score)” value [3] was -0.012 and the “glycan array binding signal (z-score)” value [4] was -0.23. The “glycan array binding signal (z-score)” value [5] was -0.463, the “glycan array binding signal (z-score)” value (Fuc(a1-2)Gal(b1-4)Glc) was -0.098 and the “glycan array binding signal (z-score)” value (Fuc(a1-2)Gal(b1-4)Glc6S) was 0.468. The “glycan array binding signal (z-score)” value (Fuc(a1-2)Gal(b1-4)GlcNAc) was -0.274, the “glycan array binding signal (z-score)” value [6] was -0.26 and the “glycan array binding signal (z-score)” value [7] was -0.398. The “glycan array binding signal (z-score)” value [8] was -0.346, the “glycan array binding signal (z-score)” value [9] was -0.095 and the “glycan array binding signal (z-score)” value [10] was 0.126. For the same binder, the “glycan array binding signal (z-score)” value [11] was -0.166, the “glycan array binding signal (z-score)” value (Fuc(a1-2)Gal6S(b1-4)Glc) was -0.159 and the “glycan array binding signal (z-score)” value [12] was -0.583. The “glycan array binding signal (z-score)” value [13] was -0.274, the “glycan array binding signal (z-score)” value (Fuc(a1-2)GlcNAc) was -0.432 and the “glycan array binding signal (z-score)” value (Fuc(a1-2)[Gal(a1-3)]Gal) was -0.151. For the same binder, the “glycan array binding signal (z-score)” value [14] was 8.27, the “glycan array binding signal (z-score)” value [15] was 6.99 and the “glycan array binding signal (z-score)” value [16] was 7.65. For the same binder, the “glycan array binding signal (z-score)” value [17] was -0.366, the “glycan array binding signal (z-score)” value [18] was -0.291 and the “glycan array binding signal (z-score)” value [19] was -0.184. For the same binder, the “glycan array binding signal (z-score)” value [20] was -0.223, the “glycan array binding signal (z-score)” value [21] was 0.052 and the “glycan array binding signal (z-score)” value [22] was -0.296. For the same binder, the “glycan array binding signal (z-score)” value [23] was -0.323, the “glycan array binding signal (z-score)” value [24] was -0.307 and the “glycan array binding signal (z-score)” value (Fuc(a1-3)GlcNAc) was -0.251. The “glycan array binding signal (z-score)” value [25] was 0.706, the “glycan array binding signal (z-score)” value [26] was -0.463 and the “glycan array binding signal (z-score)” value [27] was 0.936. The “glycan array binding signal (z-score)” value [28] was -0.206, the “glycan array binding signal (z-score)” value [29] was -0.319 and the “glycan array binding signal (z-score)” value [30] was -0.054. The “glycan array binding signal (z-score)” value [31] was 0.261, the “glycan array binding signal (z-score)” value [32] was 0.173 and the “glycan array binding signal (z-score)” value [33] was 0.026. The “glycan array binding signal (z-score)” value [34] was 0.168, the “glycan array binding signal (z-score)” value [35] was -0.341 and the “glycan array binding signal (z-score)” value (Fuc(a1-4)GlcNAc) was -0.384.
